41 variants from the RNAGym collection of RNA variant scans (doi:10.7554/elife.90254) can be followed below.

Read counts are not given, so values of variants with three or more changes are uncertain.

To fix the notation:
B1: OR4K15 (parent)
chain: GUUAACGGUCAUAGGCCAUGGAAACUAGGAGCACCAUUUCGCUGCCAGUGAAGAAAUGAACAAAGAAAAUCUGGGCCAGGCAGGCAUCAAAAGAAAUAGUCUUGCGCUCAACCAGAAAGUCUGUAAUCAUUUUAAGGGUA

Variants of B1 are the subject of this data set. Kind of data set: self-cleavage, relative activity (ratio to wild type); higher = more cleavage; in vitro, sequencing; the parent is a self-cleaving ribozyme.
With GUUAACGGUCAUAGGCCAUGGAAACUAGGAGCACCAUUUCGCUGCCAGUGAAGAAAUGAACAAAGAAAACCUGGGCCAGUCAGGCAUCAAAAGAAAUAGUCUUGCGCUCAACCAGAAAGUCAGUAAUCAUUUUAAGGGUA, the self-cleavage was determined as 0.09.

As for GUUAACGGUCAUAGGCCAUGGAAACUAGGAGCACCAUUUCGCUGCCAGUGAAGAAAUGAACAAAGAAAACCUGGGCCAGGCAGGCAUCAAAAGAAAUAGUCCUGCGCUCAACCAGAAAGUCUGUAAUCACUUUAAGGGUA, the self-cleavage came to 1.59. As for GUUAACGGUCAUAGGCCAUGGAAACUAGGAGCACCAUUUCGCUGCCAGUGAAGAAAUGAACAAAGAAAAGCUGGGCCAGGCAGGCAUCAAAAGAAGUAGUCUUGCGCUCAACCAGAAAGCCUGUAAUCAUUUUAAGGGUA, the self-cleavage turned out to be 0.9. Take GUUAACGGUCAUAGGCCAUGGAAACUAGGAGCACCAUUUCGCUGCCAGUGAAGAAAUGAACAAAGAAAACCCGGGCCAGGCAGGCAUCAAAAGAAAUAGUCUUGCGCUCGACCAGAAAGUCUGUAAUCACUUUAAGGGUA: the self-cleavage was found to be 0.07. Consider GUUAACGGUCAUAGGCCAUGGAAACUAGGAGCACCAUUUCGCUGCCAGUGAAGAAAUGAACAAAGAAAAUCAGGGCCAGGCUGGCACCAAAAGAAAUAGUCUUGCGCUCAACCAGAAAGUCUGUAAUCAUUUUAAGGGUA, for which the self-cleavage amounted to 0.24. As for GUUAACGGUCAUAGGCCAUGGAAACUAGGAGCACCAUUUCGCUGCCAGUGAAGAAAUGAACAAAGAAAAUCAGGGCCAGGCAGGCAUCAAAAGAAAUAGUCUUGCGCUCAACCAGAGAGUCUGUAAUCGUUUUAAGGGUA, the figure is 0.08; as for GUUAACGGUCAUAGGCCAUGGAAACUAGGAGCACCAUUUCGCUGCCAGUGAAGAAAUGAACAAAGAAAACCUGGGCCAGGCAGGCAUCAAAAGAAAUAGUCCUGCGCUCGACCAGAAAGUCUGUAAUCUUUUUAAGGGUA, 0.12. Regarding GUUAACGGUCAUAGGCCAUGGAAACUAGGAGCACCAUUUCGCUGCCAGUGAAGAAAUGAACAAAGAAAACCAGGGCCGGGCAGGCAUCAAAAGAAAUAGUCUUGCGCUCAACCAGAAAGUCUGUAAUCAUUUUAAGGGUA, the self-cleavage was found to be 0.18.

With GUUAACGGUCAUAGGCCAUGGAAACUAGGAGCACCAUUUCGCUGCCAGUGAAGAAAUGAACAAAGAAAAUCAGGGCCAGGCAGGCAUCAAAGGAAAUAGUCUUGCGCUCGACCAGAAAGUCUGUAAUCAUUUUAAGGGUA, the self-cleavage was 0.08. As to GUUAACGGUCAUAGGCCAUGGAAACUAGGAGCACCAUUUCGCUGCCAGUGAAGAAAUGAACAAAGAAAACCUGGGCCAGGCAGGCAUCAAAAGAAAUAGUCUUGCGCCCAACCAGGAAGUCUGUAAUCAUUUUUAGGGUA, the self-cleavage worked out at 0.

Regarding GUUAACGGUCAUAGGCCAUGGAAACUAGGAGCACCAUUUCGCUGCCAGUGAAGAAAUGAACAAAGAAAAUUUGGGCCAGUCAGGCAUCAAAAGAAUUAGUCCUGCGCUCAACCAGAAAGUCUGUAAUCAUUUUGAGGGUA, the self-cleavage came to 0.39. With GUUAACGGUCAUAGGCCAUGGAAACUAGGAGCACCAUUUCGCUGCCAGUGAAGAAAUGAACAAAGAAAAUCAGGGCCAGGCAGGCAUCAAAAGAAAUAGUCUUGCGCUCAACCAGAGAGUCUGUAAUCAUUUUGAGGGUA, the self-cleavage was determined as 0.15.

Turning to GUUAACGGUCAUAGGCCAUGGAAACUAGGAGCACCAUUUCGCUGCCAGUGAAGAAAUGAACAAAGAAAAUAUGGGCCAGGCAGGCAUCAAAAGAAAUAGUCUUGCGCUCAGCCAGGAAGUCUGUAAUCAUUUUAAGGGUA, the self-cleavage worked out at 0. The figure for GUUAACGGUCAUAGGCCAUGGAAACUAGGAGCACCAUUUCGCUGCCAGUGAAGAAAUGAACAAAGAAAACCUGAGCCUGGCAGGCAUCAAAAGAAAUAGUCUUGCGCUCAACCAGAAAGUCUGUAAUCAUUUUAAGGGUA is 0.04; for GUUAACGGUCAUAGGCCAUGGAAACUAGGAGCACCAUUUCGCUGCCAGUGAAGAAAUGAACAAAGAAAACCUGGGCCAGGCAGGCAUCAAAAGAAAUAGUCUUGCGCUCAACCAGAAAGUCCGUAGUCAUUUUAAGGGUA it is 0.44. In the case of GUUAACGGUCAUAGGCCAUGGAAACUAGGAGCACCAUUUCGCUGCCAGUGAAGAAAUGAACAAAGAAAACCUGGGCCAGGCAGGCAUCUAAAGAAAUAGACUUGCGCUCAACCAGAAAGUCUGUAAUCAUUUUAAGGGUA, the self-cleavage is 0.52. The figure for GUUAACGGUCAUAGGCCAUGGAAACUAGGAGCACCAUUUCGCUGCCAGUGAAGAAAUGAACAAAGAAAACCUGGGCCAGGCAGGCAUCAAAAGAAAUAGUCUUGCGCUCAACCAGAGAGUCUGUAAUCAUUAUAAGGGUA is 2.17; for GUUAACGGUCAUAGGCCAUGGAAACUAGGAGCACCAUUUCGCUGCCAGUGAAGAAAUGAACAAAGAAAACCUGGGCCAGGCAGGCAUCAAAAGAAAUAGUCUUGCGCUCGACCAGAAGGUCCGUGAUCAUUUUAAGGGUA it is 0.01.

Turning to GUUAACGGUCAUAGGCCAUGGAAACUAGGAGCACCAUUUCGCUGCCAGUGAAGAAAUGAACAAAGAAAAUCCGGGCCAGGCAGGCAUCGAAAGAAAUAGUCUUGCGCUCAGCCAGAAAGUCUGUAAUCAUUUUAAGGGUA, the self-cleavage worked out at 0.02.

For the variant GUUAACGGUCAUAGGCCAUGGAAACUAGGAGCACCAUUUCGCUGCCAGUGAAGAAAUGAACAAAGAAAAUCAGGGCCAGGCAGGAAUCAAAAGAAAUAGUCUUGCGCUCAACCAGAAAGUCAGUAAUCAUUUUAAGGGUA, the self-cleavage worked out at 0.13. The figure for GUUAACGGUCAUAGGCCAUGGAAACUAGGAGCACCAUUUCGCUGCCAGUGAAGAAAUGAACAAAGAAAACCUGGGGCCGGCAGGCAUCAAAAGAAAUAGUCUUGCGCUCAACCAGAAAGUCUGUAAUCACUUUAAGGGUA is 0.09; for GUUAACGGUCAUAGGCCAUGGAAACUAGGAGCACCAUUUCGCUGCCAGUGAAGAAAUGAACAAAGAAAAUCAGGGCCAGGCAGGCAUCAAAAGAGAUGGUCUUGCGCUCAACCAGAAAGUCUGUAAUCAUUUUAAGGGUA it is 0.04. As for GUUAACGGUCAUAGGCCAUGGAAACUAGGAGCACCAUUUCGCUGCCAGUGAAGAAAUGAACAAAGAAAACCUGGGCCAGGCAGGCAUCAAAAGUAAUAGUCAUGCGCUCAACCAGAAAGUCUGUAACCAUUUUAAGGGUA, the figure is 0.08. For the variant GUUAACGGUCAUAGGCCAUGGAAACUAGGAGCACCAUUUCGCUGCCAGUGAAGAAAUGAACAAAGAAAACCUGGGCCAGGCAGGCAUCAAAAGAGAUAGUCUUGCGCUCGACCAGAAAGUCUGUAAUCAUUUUAAGGGUA, the self-cleavage was found to be 0.15. As for GUUAACGGUCAUAGGCCAUGGAAACUAGGAGCACCAUUUCGCUGCCAGUGAAGAAAUGAACAAAGAAAACCUGGGCCAGGCGGGCAUCAAAAGAAAUAGUCUUGCGCACAACCAGAAGGUCUGUAAUCAUUUUAAGGGUA, the figure is 0.02; as for GUUAACGGUCAUAGGCCAUGGAAACUAGGAGCACCAUUUCGCUGCCAGUGAAGAAAUGAACAAAGAAAAUCCGGGCCAGGCAGGCGUCAGAAGAAAUAGUCUUGCGCUCAACCAGAAAGUCUGUAAUCAUUUUAAGGGUA, 0.26.

As for GUUAACGGUCAUAGGCCAUGGAAACUAGGAGCACCAUUUCGCUGCCAGUGAAGAAAUGAACAAAGAAAAUCAGGGCCAGGCAGGCACCAAAAGAAAUAGUCUUGCGCUCAGCCAGAAAGUCUGUAAUCAUUUUAAGGGUA, the self-cleavage was 0. As for GUUAACGGUCAUAGGCCAUGGAAACUAGGAGCACCAUUUCGCUGCCAGUGAAGAAAUGAACAAAGAAAAUCAGGGCCAGGCAGGCAUCAAAAGAAAAAGUCUUGCGCUCGACCAGAAAGUCUGUAAUCAUUUUAAGGGUA, the figure is 0.02; as for GUUAACGGUCAUAGGCCAUGGAAACUAGGAGCACCAUUUCGCUGCCAGUGAAGAAAUGAACAAAGAAAACCCGGGCCCGGCAGGCUUCAAAAGAAAUAGUCUUGCGCCCAACCAGAAAGUCUGUAAUCAUUCUAAGGGUA, 0.01. Consider GUUAACGGUCAUAGGCCAUGGAAACUAGGAGCACCAUUUCGCUGCCAGUGAAGAAAUGAACAAAGAAAACCUGGGCCAGGCAGGCAUCAAAAGAAAUAGUCCUGCGCUCAACCGGAAAGUCUGUAACCAUUUUAAGGGUA, for which the self-cleavage stood at 0.07. On to GUUAACGGUCAUAGGCCAUGGAAACUAGGAGCACCAUUUCGCUGCCAGUGAAGAAAUGAACAAAGAAAACCUGGGCCAGGCAGGCAUCAAAAGAGAUAGUCUUGCGCUCAACCAGAAGGUCUGCAACCAUUUUAAGGGUA, for which the self-cleavage stood at 0.17. GUUAACGGUCAUAGGCCAUGGAAACUAGGAGCACCAUUUCGCUGCCAGUGAAGAAAUGAACAAAGAAAACCUGGGCCAGGCUGGCAUCAAAAGAAAUAGUCCUGCGCUCAACCAGAAAGUCUGUAAUCAUUUUAAGGGUA: the self-cleavage was 0.39. As to GUUAACGGUCAUAGGCCAUGGAAACUAGGAGCACCAUUUCGCUGCCAGUGAAGAAAUGAACAAAGAAAAUCAGUGCCAGGCAGGCAUCAAAAGAAAUAGUCUUGCGCUCAACCAGUUAGUCUGUAAUCAUUUUAAGGGUA, the self-cleavage worked out at 0.01. Take GUUAACGGUCAUAGGCCAUGGAAACUAGGAGCACCAUUUCGCUGCCAGUGAAGAAAUGAACAAAGAAAACCUGGGCCAGGCAGGCAUCAAAAGAAAUAGUCUUGCGCUCGACCAGAAAGUCUGUAAUCGUUUUAAGGGUA: the self-cleavage worked out at 0. Take GUUAACGGUCAUAGGCCAUGGAAACUAGGAGCACCAUUUCGCUGCCAGUGAAGAAAUGAACAAAGAAAAUCCGGGCCAGGCAGGCGUCAAAAGAAAUAGUCUUGCGCUCAACCAGAAAGUCUGCAAUCAUUUUAAGGGUA: the self-cleavage was 0.09. As for GUUAACGGUCAUAGGCCAUGGAAACUAGGAGCACCAUUUCGCUGCCAGUGAAGAAAUGAACAAAGAAAACCUGGGCCAGGCAGGUAUCAAAAGAAAUAGUCUUGCGCUCAACCAGAGAGUCUGUAAUCAUUUUAAGGGUA, the figure is 1.09; as for GUUAACGGUCAUAGGCCAUGGAAACUAGGAGCACCAUUUCGCUGCCAGUGAAGAAAUGAACAAAGAAAACCUGGGCCAGGCAGCCAUCAAGGGAAAUAGUCUUGCGCUCAACCAGAAAGUCUGUAAUCAUUUUAAGGGUA, 0.24. The figure for GUUAACGGUCAUAGGCCAUGGAAACUAGGAGCACCAUUUCGCUGCCAGUGAAGAAAUGAACAAAGAAAACCUGGGCCAGGCAGGCAUCAAAGAAAAUAGUCUUGCGCUCGACCAGGAAGUCUGUAAUCAUUUUAAGGGUA is 0.14; for GUUAACGGUCAUAGGCCAUGGAAACUAGGAGCACCAUUUCGCUGCCAGUGAAGAAAUGAACAAAGAAAACCUGGGCCAGGCAGGCAUCAAAAGAAAUAGUCUUGCGCUCUACCAGAGAGUCUGUAAUCAUUUUAAGGGUA it is 1.6. The figure for GUUAACGGUCAUAGGCCAUGGAAACUAGGAGCACCAUUUCGCUGCCAGUGAAGAAAUGAACAAAGAAAACCUGGGCCAGGCAGGCAUCAAAAGGAAUAGUCUUGCGCUCAACCAGAAAGCCUGUAAUCAUUUUAAGGGUA is 0.16. Turning to GUUAACGGUCAUAGGCCAUGGAAACUAGGAGCACCAUUUCGCUGCCAGUGAAGAAAUGAACAAAGAAAAGCUGGGCCAGGCAGGCAUCAAAAGAAAUAGCCUUGCGCUCAACCAGAAAGUCAGUAAUCAUUUUAAGGGUA, the self-cleavage turned out to be 2.63.
